Data as given in PubChem BioAssay AID504333 (National Center for Advancing Translational Sciences (NCATS), 2011).
Hit rate of the full screen: of about 360,000 compounds, about 16,000 (4.4%) were called active. Inconclusive means that the source gave no clear call. Such entries were picked first, then a sample of the others. Calls come from the whole dose curve; as a rule, active = well fitted inhibition curve with a large enough effect; inconclusive = small, poorly fitted or top-dose-only effect; inactive = no such curve, though single readings can be large or run the other way. Potencies beside an inconclusive call are fits to weak or partial responses and may not hold up.

Target: Bromodomain adjacent to zinc finger domain protein 2B (Homo sapiens) (UniProt Q9UIF8)
UniProt Q9UIF8, sequence (Q9UIF8 whole entry, looked up, the tested form may be a part): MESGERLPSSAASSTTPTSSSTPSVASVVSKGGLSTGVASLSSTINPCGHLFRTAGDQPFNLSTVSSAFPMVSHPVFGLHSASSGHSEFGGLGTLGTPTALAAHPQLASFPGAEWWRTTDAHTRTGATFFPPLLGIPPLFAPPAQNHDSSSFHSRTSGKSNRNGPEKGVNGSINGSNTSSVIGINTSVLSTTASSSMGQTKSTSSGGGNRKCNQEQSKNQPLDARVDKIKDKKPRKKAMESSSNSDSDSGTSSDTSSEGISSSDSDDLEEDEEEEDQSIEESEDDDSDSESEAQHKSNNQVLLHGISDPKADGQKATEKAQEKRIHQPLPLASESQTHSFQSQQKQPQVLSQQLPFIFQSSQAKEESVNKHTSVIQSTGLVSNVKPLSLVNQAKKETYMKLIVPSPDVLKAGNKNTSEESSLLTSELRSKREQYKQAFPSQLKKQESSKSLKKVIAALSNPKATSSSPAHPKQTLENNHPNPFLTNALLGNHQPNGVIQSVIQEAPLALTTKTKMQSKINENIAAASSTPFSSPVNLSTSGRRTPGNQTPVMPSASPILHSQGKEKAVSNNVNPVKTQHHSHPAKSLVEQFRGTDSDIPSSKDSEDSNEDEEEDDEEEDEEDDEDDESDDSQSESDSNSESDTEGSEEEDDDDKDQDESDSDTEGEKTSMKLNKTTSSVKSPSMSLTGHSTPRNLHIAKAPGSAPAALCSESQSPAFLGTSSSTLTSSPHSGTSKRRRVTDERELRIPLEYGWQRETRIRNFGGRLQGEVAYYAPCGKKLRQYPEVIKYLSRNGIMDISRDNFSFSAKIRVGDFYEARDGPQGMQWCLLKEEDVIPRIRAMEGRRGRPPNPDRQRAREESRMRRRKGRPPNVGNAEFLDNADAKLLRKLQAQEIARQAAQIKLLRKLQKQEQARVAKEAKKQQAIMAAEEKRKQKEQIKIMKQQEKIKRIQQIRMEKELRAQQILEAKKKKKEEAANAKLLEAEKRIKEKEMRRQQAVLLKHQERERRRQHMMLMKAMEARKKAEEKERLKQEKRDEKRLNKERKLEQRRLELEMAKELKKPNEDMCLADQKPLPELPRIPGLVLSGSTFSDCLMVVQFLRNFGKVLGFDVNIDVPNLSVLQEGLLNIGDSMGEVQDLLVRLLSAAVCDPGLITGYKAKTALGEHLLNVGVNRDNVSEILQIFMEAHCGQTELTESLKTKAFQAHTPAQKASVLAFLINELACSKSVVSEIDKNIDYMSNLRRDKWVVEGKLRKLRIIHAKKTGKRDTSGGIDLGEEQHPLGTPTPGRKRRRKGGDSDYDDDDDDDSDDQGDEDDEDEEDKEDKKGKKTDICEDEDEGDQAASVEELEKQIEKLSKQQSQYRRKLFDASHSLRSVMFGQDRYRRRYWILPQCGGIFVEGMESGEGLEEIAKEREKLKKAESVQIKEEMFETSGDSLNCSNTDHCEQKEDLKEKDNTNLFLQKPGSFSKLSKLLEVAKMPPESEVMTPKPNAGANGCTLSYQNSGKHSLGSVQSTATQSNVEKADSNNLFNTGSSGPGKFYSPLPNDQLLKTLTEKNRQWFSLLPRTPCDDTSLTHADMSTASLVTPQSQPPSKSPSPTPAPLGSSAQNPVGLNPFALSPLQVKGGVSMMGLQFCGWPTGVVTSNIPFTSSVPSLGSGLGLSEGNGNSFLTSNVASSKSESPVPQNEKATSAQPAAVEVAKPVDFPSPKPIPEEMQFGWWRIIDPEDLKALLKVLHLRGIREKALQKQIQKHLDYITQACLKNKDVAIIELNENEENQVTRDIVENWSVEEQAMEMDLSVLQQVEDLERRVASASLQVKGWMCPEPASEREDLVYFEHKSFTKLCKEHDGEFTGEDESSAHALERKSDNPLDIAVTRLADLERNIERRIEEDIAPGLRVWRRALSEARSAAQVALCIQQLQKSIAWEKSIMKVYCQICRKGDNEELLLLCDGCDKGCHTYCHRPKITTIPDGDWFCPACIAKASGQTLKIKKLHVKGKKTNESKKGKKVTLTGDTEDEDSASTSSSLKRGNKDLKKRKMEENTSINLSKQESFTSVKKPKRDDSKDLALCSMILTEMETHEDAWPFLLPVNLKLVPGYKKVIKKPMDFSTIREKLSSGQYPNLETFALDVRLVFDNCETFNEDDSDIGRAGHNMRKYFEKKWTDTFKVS
Assay: qHTS Assay for Inhibitors of BAZ2B; note: nearly all actives have a fitted effect of over 60% in size
Conditions: AlphaScreen BAZ2B-H3K14Ac peptide displacement; activity change, negative = inhibition: at 114 µM (top of the series)
Method in brief: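 In this displacement format the biotinylated H3(5-23) peptide acetylated at Lys14 serves as ligand at 50 nM, with BAZ2B at 50 nM in PBS pH 7.4 containing 0.01% Tween-20. Donor and acceptor beads are 10 ug/mL final.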
% is set by controls: 0 for no effect and ±100 for the full control effect; potency is the fitted concentration of half-maximal effect; tags give direction and shape of the fitted curve.

| SMILES | Potency | activity change, negative = inhibition |
| --- | --- | --- |
| CCOc1ccc(S(=O)(=O)N2CCN(c3ccccc3F)CC2)c2cccnc12 | inconclusive: 70.8 µM [inhibitor, single point] | – |
| C=CCn1c(-c2cccc([N+](=O)[O-])c2)n[nH]c1=S | – | inactive: -27.2% |
| COC(=O)[C@@H](Cc1ccc(O)cc1)NC(=O)[C@H]1CCC(=O)N1C(=O)OCc1ccccc1 | – | inactive: 0.864% |
| CC(=O)Nc1ccc(N2C(=O)c3cccc4c(O)ccc(c34)C2=O)cc1 | active: 50.1 µM | – |
| Cc1ccc(SC2=C(Sc3ccc(C)cc3)C(=O)c3ccccc3C2=O)cc1 | active: 3.55 µM | – |
| CC(=O)N(C)C1=C(O)c2ccccc2C(=O)C1=O | inconclusive: 89.1 µM [inhibitor, single point] | – |
| CCN(CC)CC(=O)Nc1sc2c(c1C(=O)c1ccccc1OC)CCC2 | inconclusive: 50.1 µM [inhibitor, partial curve] | – |
| Cc1cc([N+](=O)[O-])nn1CCCC(=O)Nc1sc2c(c1C(N)=O)CCCC2 | inconclusive: 79.4 µM [inhibitor, partial curve] | – |
| CN1/C(=C\C(=O)Nc2ccc(Br)cc2)C(C)(C)c2ccccc21 | inconclusive: 79.4 µM [inhibitor, single point] | – |
| Cc1ccc2nc(-c3c[nH]c4ccccc34)c(Nc3ccc(F)cc3)n2c1 | – | inactive: -34.4% |
| O=C(COCc1cc(-c2ccco2)on1)Nc1cccc(Cl)c1Cl | – | inactive: 24.8% |
| N#C[C@H]1[C@H](c2ccccc2)[C@](C#N)(C(=O)c2ccccc2)[C@@H]2C=Cc3ccccc3N21 | active: 28.2 µM | – |
| O=c1c2cnn(-c3ccccc3)c2nc(-c2cccs2)n1-c1cccc(Cl)c1 | inconclusive: 70.8 µM [inhibitor, single point] | – |
| O=C(CSc1nnc2c(n1)[nH]c1ccccc12)Nc1cccc(S(=O)(=O)N2CCOCC2)c1 | – | inactive: -5.02% |
| C/C(CCc1oc2ccccc2c1-c1ccc(C)o1)=N/O | inconclusive: 79.4 µM [inhibitor, single point] | – |
| COc1cc(-c2nc3cccc(C)n3c2NCC2CCCO2)ccc1O (centres undefined) | inconclusive: 79.4 µM [inhibitor, single point] | – |
| CC1(C)CC(=O)C2=C(C1)Nc1ccccc1NC2c1nc2ccccc2[nH]1 (centres undefined) | – | inactive: 28% |
| CC(=O)c1ccc(NC(=O)CSc2nccn2Cc2ccc3c(c2)OCO3)cc1 | inconclusive: 35.5 µM [inhibitor, partial curve] | – |
| CCOC(=O)c1nnsc1NC(C)=O | – | inactive: 11.7% |
| Cc1nnc(C)n1/N=C/c1cc(Br)cc(Br)c1O | active: 50.1 µM | – |
| Cc1ccc(CNC(=S)Nc2cc(C(=O)O)ccc2C)cc1 | – | inactive: 11.1% |
| COC(=O)CN(C(=S)Nc1ccccc1)C1CC(=O)N(c2ccc(OC)cc2)C1=O (centres undefined) | – | inactive: -5.54% |
| O=C(O)c1ccc(N=Nc2c(O)ccc3ncccc23)cc1 | active: 1.58 µM | – |
| COc1ccc(OC)c(CCNC(=O)c2ccc3c(c2)N(Cc2ccc(F)cc2)CCS3)c1 | inconclusive: 22.4 µM [inhibitor, single point] | – |
| CCOc1ccc(C2/C(=C(/O)c3ccc4c(c3)CC(C)O4)C(=O)C(=O)N2CCCn2ccnc2)cc1OCC (centres undefined) | inconclusive: 56.2 µM [inhibitor, partial curve] | – |

| SMILES | Potency | activity change, negative = inhibition |
| --- | --- | --- |
| FC(F)(F)c1cc(CCN2CCNC[C@H]2Cc2cccc3ccccc23)cc(C(F)(F)F)c1 | active: 50.1 µM | – |
| CCC1=C(OC(=O)N(CC)CC)N2C(=O)OC(=NCCc3c[nH]c4ccccc34)[C@]2(Cc2ccccc2)[C@H]2C1=CC[C@H]1C(=O)N(C)C(=O)[C@H]12 | – | inactive: -33.3% |
| O=C(NNc1ccccn1)C(=O)NNS(=O)(=O)c1ccc(F)cc1 | active: 39.8 µM | – |
| C=CCN(c1ccccc1)S(=O)(=O)c1ccc2c(c1)N(C(C)=O)CCO2 | – | inactive: -22.5% |
| CCN(C(=O)CN1C(=O)c2ccc([N+](=O)[O-])cc2C1=O)C1CCCCC1 | inconclusive: 50.1 µM [inhibitor, partial curve] | – |
| C(=C\c1ccccn1)/c1ccccn1 | – | inactive: 21% |
| CCC(C(=O)OCCN(CC)CC)c1ccccc1 (centres undefined) | inconclusive: 89.1 µM [inhibitor, single point] | – |
| CCOC(=O)CNC(=O)c1ccc(SCC)cc1 | – | inactive: 3.81% |
| COc1ccc(C(=O)Oc2ccc(C(c3c(C)[nH][nH]c3=O)c3c(C)[nH][nH]c3=O)cc2OC)cc1 | inconclusive: 31.6 µM [inhibitor, full curve, poor fit] | – |
| O=S(=O)(c1cccc(-c2cn3ccccc3n2)c1)N1CCCC1 | inconclusive: 89.1 µM [inhibitor, single point] | – |
| O=C(CCCOc1ccccc1)Nc1cccc(C(=O)O)c1 | – | inactive: 0.447% |
| CCOc1ccc(NC(=O)c2oc3ccccc3c2NC(=O)Cc2cccc(C)c2)cc1 | – | inactive: 0.028% |
| C=CCNC(=S)N/N=C/c1cn(C)c2ccccc12 | – | inactive: -25.2% |
| CCOC(=O)c1csc(NC(=O)CCSc2ccccc2)n1 | – | inactive: 2.68% |
| C#CCOCCOCCOCCNc1nc(N2CCN(C(=O)[C@H](CCC(=O)O)n3cc(C(N)Cc4ccc(O)cc4)nn3)CC2)nc(N2CCN(C(=O)[C@H](CCCCN)n3cc(C(N)[C@H](C)CC)nn3)CC2)n1 (some centres undefined) | active: 79.4 µM | – |
| CCn1nc(C)cc1-c1n[nH]c(=S)n1N | inconclusive: 89.1 µM [inhibitor, single point] | – |
| O=C(NCc1ccccn1)C(=O)N/N=C/c1ccccc1O | active: 39.8 µM | – |
| COC(=O)C1=C(C)Nc2ccc(C)cc2S1 | active: 39.8 µM | – |
| CCn1nc([N+](=O)[O-])c2c(-c3nc4ccccc4o3)c(N)n(CCCOC)c2c1=O | active: 56.2 µM | – |
| CC(=O)Nc1ccccc1C(F)(F)F | – | inactive: 0.0397% |
| CCC(=O)N1CCN(c2ccc(Cl)cc2NC(=O)c2ccc(N3CCCC3)c([N+](=O)[O-])c2)CC1 | inconclusive: 89.1 µM [inhibitor, single point] | – |
| O=C(Cn1c(=O)nc(-c2ccccc2)c2cc(Cl)ccc21)NCCc1ccccc1 | – | inactive: -4.04% |
| O=C1CN(C(=O)/C=C/c2ccco2)c2ccccc2N1 | inconclusive: 79.4 µM [inhibitor, partial curve] | – |
| CN1CCN(/N=C/c2ccc(C#N)cc2)CC1 | inconclusive: 100 µM [inhibitor, partial curve] | – |
| O=C1OC(c2cccs2)=N/C1=C\c1ccc(-c2cccc(Cl)c2)o1 | inconclusive: 79.4 µM [inhibitor, single point] | – |

| SMILES | Potency | activity change, negative = inhibition |
| --- | --- | --- |
| O=C(c1cccs1)N1CCN(CCCc2ccccc2)CC1 | active: 79.4 µM | – |
| CCc1cccc(NC(=O)CCN2C(=O)c3ccccc3Sc3ncccc32)c1 | inconclusive: 89.1 µM [inhibitor, single point] | – |
| COc1ccc(/C=N/NS(=O)(=O)c2ccccc2)cc1OC(=O)c1ccc(C)cc1 | inconclusive: 79.4 µM [inhibitor, single point] | – |
| O=C(NCCNC(=O)c1ccc(Br)o1)c1cccnc1 | – | inactive: -3.28% |
| CC(C)(C)c1ccc(/C=N/N2CCN(c3ccccn3)CC2)cc1 | – | inactive: -13.9% |
| c1ccc2c(Nc3ccc4c(c3)OCCO4)c3c(nc2c1)CCC3 | inconclusive: 79.4 µM [inhibitor, single point] | – |
| Cc1ccc(C2/C(=C(/O)c3ccc(Br)cc3)C(=O)C(=O)N2Cc2ccco2)o1 (centres undefined) | – | inactive: 0.678% |
| COc1ccccc1C(=O)NCc1n[nH]c(=S)n1Cc1ccccc1 | – | inactive: -2.98% |
| COc1ccc(OC)c(CCNC(=O)c2cc3c(=O)n(C)c4ccccc4c3n2C)c1 | inconclusive: 22.4 µM [inhibitor, full curve] | – |
| CCOc1ccc(NC(=O)CN2CCN(c3ccc(Cl)cc3)CC2)cc1 | – | inactive: -14.1% |
| Cc1ccc(-n2nc3c(=O)n(C(C)C(=O)NCc4ccc(Cl)cc4)nc(C)c3c2C)cc1 (centres undefined) | inconclusive: 79.4 µM [inhibitor, single point] | – |
| CCc1ccc(CN2CCSCC2)cc1 | inconclusive: 89.1 µM [inhibitor, single point] | – |
| CNC(=O)C1CC(=O)N(Cc2ccc(OC)c(OC)c2)C(=Nc2ccc(OC)cc2)S1 (centres undefined) | – | inactive: 4.39% |
| COC(=O)C1=C(C)Nc2[nH]c(=S)[nH]c(=O)c2C1c1ccc(OC)cc1 (centres undefined) | inconclusive: 44.7 µM [inhibitor, partial curve] | – |
| CC/C=C/C(=O)N1CC2(CC(c3cccc(NC(=O)CC(c4ccccc4)c4ccccc4)c3)=NO2)C[C@@H]1C(N)=O (some centres undefined) | inconclusive: 79.4 µM [inhibitor, single point] | – |
| Cc1ccc([N+](=O)[O-])cc1S(=O)(=O)N1CCn2cccc2C1c1ccc(F)c(F)c1 (centres undefined) | inconclusive: 14.1 µM [inhibitor, full curve, poor fit] | – |
| COc1ccccc1OCC(=O)Nn1c(=S)[nH]c2ncccc2c1=O | – | inactive: 1.2% |
| CCc1ccccc1N(C(=O)CNC(=O)c1ccco1)C(C(=O)NC1CCCC1)c1cccnc1 (centres undefined) | inconclusive: 89.1 µM [inhibitor, single point] | – |
| CC(=O)Nc1cc(NC(C)=O)cc(C(=O)NCC2(N3CCOCC3)CCCCC2)c1 | inconclusive: 89.1 µM [inhibitor, single point] | – |
| CC1=CC(c2ccccc2)n2nc(NS(=O)(=O)c3ccc(C)cc3)nc2N1 (centres undefined) | inconclusive: 4.47 µM [inhibitor, full curve, poor fit] | – |
| O=C(O)c1ccc2nc(-c3ccco3)c(-c3ccco3)nc2c1 | active: 10 µM | – |
| Oc1c(Br)cc(/C=N/n2c(-c3ccccc3)n[nH]c2=S)cc1Br | inconclusive: 39.8 µM [inhibitor, partial curve] | – |
| CC(=O)c1ccc(Sc2nnnn2-c2ccccc2)c([N+](=O)[O-])c1 | inconclusive: 89.1 µM [inhibitor, single point] | – |
| CN(C)/C=N/c1nc(-c2ccc3ccccc3c2)cs1 | inconclusive: 39.8 µM [inhibitor, partial curve] | – |
